Measured values taken from publication PMC12136788.
The list shows a part of the results.

B1: 141073120_141077993_660_3pUTR_ENSMUSG00000040761_ENSMUST00000078886|mouse|control|control (ssRNA)
RNA: GGGAGUUCUACAGUCCGACGAUCGGUCUCUAUAGUAAUCCUGAUCGUAAUGUCUUGUCCGAUCAAAUGCUCCUGUCCCCCGUUCAUGGUGUCCAUAGGCACUAUGUUCAUAAGCACGCUCCCUGUUAUCUGAAGCCCCAUCGACAACAGAGGAUUGAGCAUCA
B2: chr1:66463027:66463028:+_ENSMUSG00000015222_ENSMUST00000114013|mus_mus|FALSE|FALSE (ssRNA)
RNA: GGGAGUUCUACAGUCCGACGAUCUUUUCUUUCAGGAGUGGAAAUUCUGCCUCUCCCGGUUUUAAAAGGCUUUUCUUUUCUAUGUUUCUCGAGAGACGGUCUCCGAGCAUCCUUCUCAGCUCUCUCCUCUUUAGGAAUAGUUUCCAACAGAGGAUUGAGCAUCA
B3: chr5:71593506:71593507:-_ENSG00000113048_ENST00000457646|hu_hu|motif|central (ssRNA)
RNA: GGGAGUUCUACAGUCCGACGAUCGAUCUAUCUCUUCCCGAGAGGAAAUGUUGUCUAUAAGCCGUGAUAUUGUUAAAGAACGGACAGGCAACUUUCUCUCAAAUGUUUUAUCCAUUAAAGAUGCAAGAUCAGCAAGACAGUAAUCAACAGAGGAUUGAGCAUCA
B4: chr14:73694766:73694767:-_ENSMUSG00000022105_ENSMUST00000022701|mus_hu|FALSE|FALSE (ssRNA)
RNA: GGGAGUUCUACAGUCCGACGAUCUUCAGUAGAUAUCGAACUGCUGGGUUGUGUCAAAUAUAUAAGUUCACAUGUCCUUUCCAAUUUGCUGAAGAGUGCAAACAAUACAUCAUACUUCUUCAACAGUCUUGACAUAGCAUUAUCCAACAGAGGAUUGAGCAUCA
B5: chr16:9197081:9197082:+_ENSG00000182831_ENST00000327827|perfect_dup|motif|central (ssRNA)
RNA: GGGAGUUCUACAGUCCGACGAUCAAGACCAUGCAGAGCUAUGGCUUCCCGGAAGGGUUGCAAAUCAGUCUCUACAGAUGAGCGGGUUUCCGUUGAAGUAGCUCGGUUAGGGGACACUACAGUCAGUCUUGGGGGAGCUCUAGACAACAGAGGAUUGAGCAUCA
B6: 32537018_32537138_208_3pUTR_ENSMUSG00000024381_ENSMUST00000025239|mouse|control|control (ssRNA)
RNA: GGGAGUUCUACAGUCCGACGAUCCUGCGCUCGGGUCAGCUUCUUCUGUACGUUGCUGGCGAUCUUCCCCGCCGUCACCCCCUUGCUCCCCAUCUCUGCCAUCCUGGCGCCGGCCUCGCCCGAAGCGAGCGCGGAUAAUGGCGCCAACAGAGGAUUGAGCAUCA

The binders below were run against T1, UNK ZnF1-3 (human, UniProt Q9C0B0 31-174) (assay: nsRBNS (natural sequence RNA bind-n-seq); RBNS binding buffer (assumed for nsRBNS): 25 mM Tris pH 7.5, 150 mM KCl, 3 mM MgCl2, 0.01% Triton X-100, 500 ug/ml BSA, 20 U/ml SUPERase-In, 4 C; UNK is unkempt and MSI1 is Musashi-1; names of the RNAs are library labels; protein concentration not given here; high values mean tight binding).
T1 sequence: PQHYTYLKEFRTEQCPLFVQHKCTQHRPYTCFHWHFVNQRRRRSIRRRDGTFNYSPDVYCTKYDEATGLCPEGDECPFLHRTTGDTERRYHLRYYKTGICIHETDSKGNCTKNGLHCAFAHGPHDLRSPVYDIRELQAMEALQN
B1 gave a binding signal of 0.795 enrichment R.
Binder B2 has a binding signal of 0.436 enrichment R.
For B3, the binding signal was 0.957 enrichment R.
B4 was tested, and the binding signal was 0.611 enrichment R.
Work on B5 yielded a binding signal of 2.27 enrichment R.
B6 showed a binding signal of 0.717 enrichment R.
